Source: the BET-seq Pho4 binding data (Le et al. 2018)
Some of the results follow. The energies were worked out here from pooled read counts, against the library average; single values are noisy.

biological target: T1, Pho4 (S. cerevisiae) (UniProt P07270); experiment: relative binding free energy (BET-seq); higher = weaker binding; conditions: reference: library average
T1 sequence: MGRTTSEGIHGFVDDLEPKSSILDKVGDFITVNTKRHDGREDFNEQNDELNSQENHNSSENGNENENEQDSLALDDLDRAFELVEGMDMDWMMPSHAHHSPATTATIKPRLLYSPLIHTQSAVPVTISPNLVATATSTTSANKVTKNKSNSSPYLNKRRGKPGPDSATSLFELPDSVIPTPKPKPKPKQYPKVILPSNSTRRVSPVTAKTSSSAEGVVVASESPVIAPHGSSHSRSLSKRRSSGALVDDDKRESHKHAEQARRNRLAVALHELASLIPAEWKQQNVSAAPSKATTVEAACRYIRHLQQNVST

Sequence	relative binding free energy
GGTTGCACGTGTTGAG	0.08 kcal/mol
GATGTCACGTGTTAGG	0.23 kcal/mol
AGATGCACGTGGTCAT	-0.14 kcal/mol
GGGAGCACGTGGATAG	-0.14 kcal/mol
CAGAGCACGTGGGGAT	-0.1 kcal/mol
CTGTTCACGTGGCTGA	0.28 kcal/mol
GGGGACACGTGGCTTG	0.06 kcal/mol
TATTGCACGTGAGTCG	0.16 kcal/mol
TGGTTCACGTGCATCG	0.29 kcal/mol
TGCTTCACGTGGGGAG	0.15 kcal/mol
GTAGTCACGTGTACGT	0.26 kcal/mol
TGGTCCACGTGTAGGA	0.09 kcal/mol
TAATTCACGTGCAGTG	0.18 kcal/mol
GGAAGCACGTGAGGTT	0.2 kcal/mol
TGTACCACGTGGAGGG	-0.16 kcal/mol
AGGTGCACGTGAATTG	0.31 kcal/mol
AGAATCACGTGGTGGA	0.16 kcal/mol
GTGGGCACGTGAGAAT	0.3 kcal/mol
TGCGTCACGTGCGCGG	-0.14 kcal/mol
AGTAACACGTGGCGTA	0.01 kcal/mol
ATTTACACGTGGTGCA	0 kcal/mol
TATGACACGTGAGGTT	0.17 kcal/mol
GGGGACACGTGTTGAG	0.17 kcal/mol

Sequence	relative binding free energy
GGCTCCACGTGGGTGG	-0.11 kcal/mol
AATTGCACGTGTTTTG	-0.06 kcal/mol
CTGATCACGTGGTGAG	0.04 kcal/mol
GGAGACACGTGTAGGA	0.1 kcal/mol
GGGGTCACGTGAGGAA	0.43 kcal/mol
GTATACACGTGGGGGA	-0.09 kcal/mol
ATGTGCACGTGGTGTG	-0.18 kcal/mol
GGGTTCACGTGGACAG	0.34 kcal/mol
GTAGTCACGTGATATG	0.23 kcal/mol
AGTTTCACGTGCTTGA	0.17 kcal/mol
TGGGGCACGTGTCGGA	-0.08 kcal/mol
TATGACACGTGTAAGT	0.1 kcal/mol
AAAGACACGTGGGGGT	-0.16 kcal/mol
TATCTCACGTGGCTTG	0.21 kcal/mol
GTTGGCACGTGATAAG	0.06 kcal/mol
AATTACACGTGTTTGT	0.01 kcal/mol
GGGTGCACGTGAGCCT	0.34 kcal/mol
TAGGCCACGTGCTGGG	-0.18 kcal/mol
TAGCGCACGTGACTGG	0.13 kcal/mol
AAAAGCACGTGTTTTT	-0.19 kcal/mol
GTTGGCACGTGTCTGA	0.11 kcal/mol
TTAGTCACGTGCGTCT	0.12 kcal/mol
GTTTACACGTGGGCTT	0.05 kcal/mol

Sequence	relative binding free energy
TACTTCACGTGGTTAT	0.23 kcal/mol
TCGCTCACGTGGGTGG	0.08 kcal/mol
AGACGCACGTGGGGTG	-0.21 kcal/mol
TTAATCACGTGGAGTT	0.19 kcal/mol
AGAAGCACGTGGTTGT	-0.18 kcal/mol
AGGTGCACGTGAAAGT	0.21 kcal/mol
AAGATCACGTGAGAGG	0.36 kcal/mol
GTGTTCACGTGGAGCG	0.25 kcal/mol
TTGGACACGTGTGAAT	0.19 kcal/mol
GTCAGCACGTGTGGCG	0.07 kcal/mol
GTGGTCACGTGACTGG	0.13 kcal/mol
TGGAGCACGTGGCTGT	-0.11 kcal/mol
GTTAACACGTGTCATT	-0.01 kcal/mol
TATAACACGTGGGTTC	-0.05 kcal/mol
AGGCGCACGTGTTTTG	-0.18 kcal/mol
CGGTTCACGTGGCTAG	0.32 kcal/mol
GTGAACACGTGAGTTA	0.23 kcal/mol
TGTTTCACGTGCGGGG	0.2 kcal/mol
TGGATCACGTGAATTA	0.29 kcal/mol
TAATACACGTGGGGAG	-0.14 kcal/mol
CGCTTCACGTGCGGGG	0.21 kcal/mol
TCGAACACGTGATGGG	0.12 kcal/mol
GCTGACACGTGGTAGG	0.11 kcal/mol

Sequence	relative binding free energy
AGTCGCACGTGCTGGG	-0.2 kcal/mol
GGTTGCACGTGAAGAG	0.16 kcal/mol
TGGTACACGTGTTTAA	0.02 kcal/mol
CATTGCACGTGGGGTA	-0.3 kcal/mol
GTCAGCACGTGTGGTC	0.14 kcal/mol
GATCGCACGTGTCGGG	0.07 kcal/mol
CATGGCACGTGGGTAG	-0.29 kcal/mol
TGTTACACGTGGAGAG	-0.01 kcal/mol
CAGTGCACGTGGGGTC	-0.13 kcal/mol
AATTGCACGTGGAGTG	0.02 kcal/mol
AGTGGCACGTGTCTAT	-0.02 kcal/mol
TACGGCACGTGTTGGA	0.02 kcal/mol
GGGTTCACGTGGGTAC	0.14 kcal/mol
CGTATCACGTGGGGCA	0.02 kcal/mol
CTTTTCACGTGATGAT	0.22 kcal/mol
GATGCCACGTGGTCGG	-0.02 kcal/mol
ATGCTCACGTGAGGTA	0.24 kcal/mol
AGGTACACGTGTGGGG	0.03 kcal/mol
TTAAACACGTGCGGTG	-0.1 kcal/mol
GTGATCACGTGTCGTG	0.09 kcal/mol
GATTTCACGTGGTATT	0.1 kcal/mol
TCTGTCACGTGTTACG	0.14 kcal/mol
TTTAGCACGTGCGGGA	-0.07 kcal/mol

Sequence	relative binding free energy
CAAGGCACGTGGGTGC	-0.1 kcal/mol
GAAGGCACGTGATGAG	0.03 kcal/mol
TTTAGCACGTGGCCTT	-0.21 kcal/mol
GCGGACACGTGAGGGC	0.44 kcal/mol
ATGGTCACGTGAAGAT	0.31 kcal/mol
TTTTTCACGTGAAACG	0.45 kcal/mol
ACGGGCACGTGCGGGA	-0.09 kcal/mol
ATTAACACGTGGTGGA	-0.09 kcal/mol
TTAGACACGTGTAAGA	0.2 kcal/mol
GGTTTCACGTGCTGTG	0.29 kcal/mol
ATGGACACGTGTCGGT	0 kcal/mol
AGTAGCACGTGTTGCG	-0.07 kcal/mol
ATTTACACGTGTGCTG	0.08 kcal/mol
GCAGTCACGTGGGTTA	0 kcal/mol
AGACTCACGTGGTTTA	0.31 kcal/mol
ATATGCACGTGGCGCG	-0.12 kcal/mol
TTAAGCACGTGGGTCA	-0.23 kcal/mol
TGTGACACGTGAGGGG	0.17 kcal/mol
TATGGCACGTGAGCAG	0.11 kcal/mol
TGTTACACGTGAGCAG	0.25 kcal/mol
AGGCTCACGTGTGGAT	0.2 kcal/mol
GGGCTCACGTGCGTAG	0.26 kcal/mol
ACAGGCACGTGTGGGC	-0.14 kcal/mol
